In the RNAGym collection of RNA variant scans (doi:10.1093/nar/gkz1192):
The source gives no read counts; variants with many changes may rest on few reads.

B1: CPEB3 Ribozyme (parent)
chain: UAACAGGGGGCCACAGCAGAAGCGUUCACGUCGCAGCCCCUGUCAGAUUCUGGUGAAUCUGCGAAUUCUGCUGUAUAUCUC

Variants of: B1
Experiment: self-cleavage, relative activity (ratio to wild type); higher = more cleavage; in vitro, sequencing
How it was run: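 Barcoded CPEB3 ribozyme mutants, produced by rounds of error-prone PCR, self-cleaved while being transcribed with T7 RNA polymerase for 5 hours at 37°C and during a subsequent 15 min DNase I step before EDTA was added. Sequencing of template-switched cDNA on Illumina gave cleaved and total reads, and DNA sequencing assigned barcodes to variants. Each variant's relative activity is its cleaved/total read fraction divided by the unmutated ribozyme's fraction, averaged across three batches. A variant needed a minimum of 5 reads.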

Row | Variant | self-cleavage
1 | A15U C39U A57U U66G | 0.15
2 | A15U G53C G63A U72C U80C | 0.4
3 | A15G U41C A64U | 0.18
4 | A15U A18G C59U A64G U66C | 0.13
5 | A15U U41C U60C | 0.37
6 | A15U A18U U26C G30U | 0.17
7 | G16A U26C U78C | 0.2
8 | A15U U26C G70A U76C U78C | 0.07
9 | A15G U41A U58C A75U | 0.19
10 | A15G U78C U80A | 1.08
11 | A15U U26C A47G U66C U69A | 0.1
12 | A15U C50U U66C | 0
13 | C17A A20G U31C A56U | 0.19
14 | A15G U51A A65U U69C | 0.08
15 | A15G U26C A35G U43C A56G A75G | 0.19
16 | A15G U41C U49C U74C | 0.16
17 | A15U U31C U67C U78C | 0.12
18 | A15U C37U U41C U48C | 0.4
19 | A15U U58G A77G C81A | 0.21
20 | A15U C37G U80C | 0.59
21 | A15U A64G U69A G70C U78A | 0.13

Row | Variant | self-cleavage
22 | A15U G16A U41G U54C A64G C81U | 0.09
23 | A15G U41A U43C U51A U60A G70U | 0.08
24 | A15U A28G C34G U54C | 0.16
25 | A15U A21G A56G U60C U67C | 0.08
26 | C17A A56U U80C | 0.18
27 | A15G U26C A47U U60A U72C | 0.3
28 | A15G U60A U74A | 0.23
29 | A15U A64U A77G | 0.14
30 | G16A A20G C27U U69A U76C | 0.02
31 | A15U U43C U66C U72A | 0.12
32 | A15G U54G U78C | 0.88
33 | G16A U43C A65U U72A | 0.38
34 | A15U A45G U78C | 0.51
35 | A15U A28C U60C U78C | 0.1
36 | A15U U26C A35G U67C | 0.15
37 | A15U C34G C79U | 0.33
38 | G16A A28G U48C U80C | 0.05
39 | A15U A18G U25C C27A A28U A64G G73A | 0.25
40 | A15G U49C U54G A57G | 0.23
41 | A15U A45G U49C U51A A57G | 0.09
42 | G16C A21U U51A | 0.16

Row | Variant | self-cleavage
43 | A15G U41A U43A U69C | 0.42
44 | A15G U41G U58C | 0.14
45 | G16A A21G C39U | 0.17
46 | A15U A18U C44A A75G | 0.03
47 | A15U U26C A35U U41C U76A U78A | 0.18
48 | G16A U41A G46A U51C U72C | 0.1
49 | C17A A35U U69G | 0.11
50 | A15U U26C U54C A57G | 0.15
51 | A15U U25C U54G | 0.22
52 | A15U U25C U54A | 0.51
53 | G16U U25A A45G U54A | 0.21
54 | G16C A35G A47G U74C U78C | 1.03
55 | A15U U60G U72A | 0.27
56 | A15G U31A C34U A45G A56G U74C | 0.09
57 | A15U A64U U74A | 0.15
58 | A15U A35U U67C | 0.16
59 | G16A A35G A45U | 0.24
60 | C17A A18G U54A | 0.38
61 | C17A A21G U25C A28G U74A | 0.48
62 | A15U A18C U43C U74A | 0.1
63 | A15U C32U U43A A77U | 0.55

Row | Variant | self-cleavage
64 | A15U A20G A35U U41A U54C A65G U72A | 0.13
65 | A15U U31G U54C | 0.34
66 | A15G U54C U78C | 1.03
67 | A15G U26A C34U U41C A56G | 0.17
68 | A15G U51C U78C | 0.61
69 | G16A C23A U25C A35G A47U | 0.03
70 | A15U G16C U48C U58C U72A | 0.08
71 | A15G U31C A57G U78C | 0.44
72 | A15U U48A U49C U76C U78A | 0.77
73 | A15U A18U U31G G53A U60A | 0.05
74 | A15U U31C A56G A75G U78C | 0.21
75 | G16C U41A A65U U80C | 0.14
76 | A15U U54C A56G U58C A64U U72C U80C | 0.11
77 | G16C A21G U41C A45G G70A U80C | 0.08
78 | G16A U48C U80A | 0.42
79 | A15G U43C A56G U60C | 0.32
80 | A15U U25A U26A U43C U51A U60C U78A | 0.04
81 | A15U A28G A47G G73U | 0.3
82 | A15G U31A C40U | 0.58
83 | G16C A18U G46U U72C | 0.28
